# Results reported in PubChem BioAssay (Tox21).
# “And” between values parts separate entries of the source, which are not always exact repeats. Identical values can stand only once. This list was built around the results that the source calls inconclusive (neither active nor inactive); the mix of calls is not that of the screen. Where a call stands in place of a potency, no number is given. For part of these data: Potencies beside an inconclusive call are fits to weak or partial responses and may not hold up. The source made the active and inactive calls. Unless noted, calls follow the shape of the dose curve; as a rule, active = well fitted curve in the direction sought with a large enough effect in the repeat runs; inconclusive = weak or mixed curves; inactive = no such curve, though single readings can be large; an effect the other way counts as inactive or inconclusive.
# Legend:
# [1] = qHTS assay for identifying genotoxic compounds that show differential cytotoxicity against isogenic chicken DT40 cell lines with known DNA damage response pathways - wild type cell line (AID 743012); details: DT40 wild type chicken cells viability, CellTiter-Glo, 40 h; activity change, negative = cytotoxicity: at 68.4 µM (top of the series) unless noted; also: nearly all actives have a fitted effect of over 60% in size; also: potency is read from the fitted curve at half-maximal effect
# Procedure, shortened: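 Parental DNA repair-proficient DT40 cells, 300 per well, were pre-incubated ~0.5 h at 37 C/5% CO2, pin-dosed with compounds in DMSO, then incubated 40 h. Viability was read as CellTiter-Glo luminescence after 30 min at room temperature.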
# [2] = target: Estrogen receptor (Homo sapiens) (UniProt P03372); test: qHTS assay to identify small molecule antagonists of the estrogen receptor alpha (ER-alpha) signaling pathway (AID 743069; active = well fitted curve in the direction sought with a large enough effect in the signal ratio in the repeat runs, not every such curve was filed as active; inconclusive = weak or mixed curves, or effect the other way; inactive = no such curve, though single readings can be large or run the other way; the % refers to the signal ratio; also: potency is read from the fitted curve at half-maximal effect); details: HEK293 ER-alpha-UAS-bla, beta-lactamase ratio, antagonist mode; activity, negative = inhibition: at 69.4 µM (top of the series) unless noted
# Procedure, shortened: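 Compound effects are measured against 17beta-estradiol stimulation in HEK293 cells with a UAS-controlled beta-lactamase reporter for ER-alpha. Exposure lasts 18 hr at 37C; LiveBLAzer B/G FRET substrate follows for 2 hr at room temperature.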
# [3] = qHTS assay to identify small molecule antagonists of the estrogen receptor alpha (ER-alpha) signaling pathway - cell viability counter screen (AID 743074; calls by dose curve;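 also: HEK293 cells carrying ER-alpha-UAS-bla reporter stimulated with 17beta-estradiol; nearly all actives have a fitted effect of over 45% in size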; also: potency is read from the fitted curve at half-maximal effect)
# [4] = qHTS assay to identify aromatase inhibitors - cell viability counter screen (AID 743084); details: MCF-7 aro ERE viability, CellTiter-Fluor, 24 h; activity change, negative = cytotoxicity: at 70.3 µM (top of the series);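 also: cells stimulated with testosterone during compound exposure; potency is read from the fitted curve at half-maximal effect; nearly all actives have a fitted effect of over 55% in size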
# [5] = test system: thyroid hormone receptor (rat, GH3 cells); test: qHTS assay to identify small molecule agonists of the thyroid receptor (TR) signaling pathway (AID 743066; calls by dose curve); details: GH3.TRE-Luc cells, TR agonist luciferase, 24 h; activation: at 83.9 µM (top of the series) unless noted
# [6] = qHTS assay to identify small molecule antagonists of the thyroid receptor (TR) signaling pathway (AID 743065); also: nearly all actives have a fitted effect of over 55% in size; also: potency is read from the fitted curve at half-maximal effect
# Procedure, shortened: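 Antagonism measured as loss of luciferase signal in GH3 cells stably carrying a TRE-luciferase reporter, co-treated with compound and T3 (1 nM final) for 23.5 h at 37 C. Viability was read in the same well by CellTiter-Fluor.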
# [7] = target: Estrogen receptor (Homo sapiens) (UniProt P03372); test: qHTS assay to identify small molecule agonists of the estrogen receptor alpha (ER-alpha) signaling pathway using the BG1 cell line (AID 743079); details: BG1Luc4E2 cells, ERE-luciferase agonist, 22 h; activation: at 70.3 µM (top of the series) unless noted; also: nearly all actives have a fitted effect of over 20% in size
# [8] = qHTS assay to identify small molecule antagonists of the estrogen receptor alpha (ER-alpha) signaling pathway using the BG1 cell line (AID 743080; calls by dose curve;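 also: BG1 cells stimulated with 17beta-estradiol alongside compound; potency is read from the fitted curve at half-maximal effect; nearly all actives have a fitted effect of over 25% in size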); details: BG1Luc4E2 ERE-luciferase antagonist mode, luminescence; activity change, negative = inhibition: at 70.3 µM (top of the series) unless noted
# Procedure, shortened: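 Quantitative HTS on the Tox21 10K library: BG1 cells with endogenous ER-alpha and ERE-luciferase reporter, 17beta-estradiol stimulation, 21.5 h compound exposure, luminescence endpoint with parallel fluorescence cytotoxicity counter-read.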
# [9] = qHTS assay to identify small molecule antagonists of the estrogen receptor alpha (ER-alpha) signaling pathway using the BG1 cell line - cell viability counter screen (AID 743081);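 also: compound given together with 17beta-estradiol as the ER stimulus; nearly all actives have a fitted effect of over 45% in size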; also: potency is read from the fitted curve at half-maximal effect
# [10] = qHTS assay to identify small molecule antagonists of the thyroid receptor (TR) signaling pathway - cell viability counter screen (AID 743064); details: GH3.TRE-Luc viability, CellTiter-Fluor, 24 h; activity change, negative = cytotoxic: at 70.3 µM (top of the series) unless noted; also: nearly all actives have a fitted effect of over 50% in size; also: potency is read from the fitted curve at half-maximal effect
# Procedure, shortened: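 GH3.TRE-Luc cells, 4 h pre-plating; cpd + T3 1 nM final; 37 °C 23.5 h; CellTiter-Fluor 30 min; fluorescence read.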
# [11] = target: Estrogen receptor (Homo sapiens) (UniProt P03372); test: qHTS assay to identify small molecule agonists of the estrogen receptor alpha (ER-alpha) signaling pathway (AID 743075; calls by dose curve; also: potency is read from the fitted curve at half-maximal effect)
# [12] = qHTS assay for identifying genotoxic compounds that show differential cytotoxicity against isogenic chicken DT40 cell lines with known DNA damage response pathways - Rev3 mutant cell line (AID 743014); details: chicken DT40 Rev3-/- viability, CellTiter-Glo, 40 h; activity, negative = cytotoxicity: at 68.4 µM (top of the series) unless noted; also: nearly all actives have a fitted effect of over 55% in size; also: potency is read from the fitted curve at half-maximal effect
# Tags tell the direction and shape of the fitted curve or compound fluorescence and quenching.
# Sequence of UniProt P03372 (P03372 whole entry, looked up): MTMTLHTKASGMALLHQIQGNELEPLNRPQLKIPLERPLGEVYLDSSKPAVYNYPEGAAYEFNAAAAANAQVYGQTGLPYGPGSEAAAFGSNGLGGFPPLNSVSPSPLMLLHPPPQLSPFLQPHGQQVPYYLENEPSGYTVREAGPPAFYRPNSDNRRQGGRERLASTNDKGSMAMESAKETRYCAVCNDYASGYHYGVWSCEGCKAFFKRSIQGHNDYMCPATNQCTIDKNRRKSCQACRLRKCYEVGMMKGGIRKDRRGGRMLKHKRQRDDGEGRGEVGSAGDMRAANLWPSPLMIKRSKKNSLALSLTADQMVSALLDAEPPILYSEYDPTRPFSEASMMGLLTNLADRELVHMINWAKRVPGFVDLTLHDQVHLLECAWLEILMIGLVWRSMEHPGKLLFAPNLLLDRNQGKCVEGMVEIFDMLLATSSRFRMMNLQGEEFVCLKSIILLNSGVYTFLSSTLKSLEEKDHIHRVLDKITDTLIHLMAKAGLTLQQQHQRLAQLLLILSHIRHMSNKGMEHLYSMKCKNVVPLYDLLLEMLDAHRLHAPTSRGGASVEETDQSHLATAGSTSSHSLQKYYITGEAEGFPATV
smiles,measurement,setting,value
C=C[Si](OCCOC)(OCCOC)OCCOC,Potency,[1],"inconclusive: 12.3 µM [rising, full curve, poor fit]"
same,Potency,[2],inactive
same,Potency,[3],inactive
same,Potency,[4],"inconclusive: 5.48 µM [rising, full curve, poor fit]"
CCc1nnc(NS(=O)(=O)c2ccc(N)cc2)s1,Potency,[1],inactive
same,Potency,[5],inactive
same,Potency,[3],"inconclusive: 26.8 µM [rising, single point]"
Cc1c(N=C=O)cccc1N=C=O,Potency,[1],"inconclusive: 6.23 µM [rising, full curve, poor fit]"
same,Potency,[6],inactive
same,Potency,[7],inactive
CC(=O)c1ccc(OCC(=O)N2CCCCC2)cc1,Potency,[1],inactive
same,Potency,[5],inactive
same,Potency,[2],inactive
same,Potency,[8],"inconclusive: 8.41 µM [rising, full curve]"
same,Potency,[9],"inconclusive: 0.0298 µM [rising, full curve, poor fit]"
CCCC(O)C(CC)CO (stereo not given),Potency,[1],"inconclusive: 1.22 µM [rising, single point]"
same,Potency,[3],"inconclusive: 61.6 µM [rising, partial curve, poor fit]"
C=CCOCC(CO)(COCC=C)COCC=C,Potency,[1],"inconclusive: 0.174 µM [rising, single point]"
same,Potency,[10],inactive
same,Potency,[3],"inconclusive: 35 µM [rising, single point]"
same,Potency,[9],inactive
OC[C@@H](O)[C@@H](O)CO,Potency,[1],inactive
same,Potency,[2],inactive
COc1cc2c(cc1OC)C(C(C(=O)N(CCc1ccc(OC)c(OC)c1OC)CCc1ccc(OC)c(OC)c1OC)c1ccccc1)=NCC2 (stereo not given),Potency,[1],active: 6.68 µM
same,Potency,[10],"inconclusive: 18.8 µM [cytotoxic, partial curve]"
same,Potency,[6],"inconclusive: 29.8 µM [inhibitor, partial curve]"
same,Potency,[9],"inconclusive: 11.9 µM [cytotoxic, partial curve]"
same,Potency,[4],"inconclusive: 16.8 µM [cytotoxic, partial curve]"
Nc1ccc(S(=O)(=O)Nc2ccccc2)cc1,Potency,[1],inactive
same,Potency,[3],inactive
Cc1cccc(CN2CCN(C(c3ccccc3)c3ccc(Cl)cc3)CC2)c1 (stereo not given),Potency,[1],active: 9.02 µM
same,Potency,[6],"inconclusive: 14.3 µM [inhibitor, single point]"
same,activation,[5],inconclusive: -8% [phenotype inactive] [at 39.4 µM]
CCCCCCCCCCCCCC(=O)OCC(O)CO (stereo not given),Potency,[1],inactive
same,Potency,[6],"inconclusive: 54.5 µM [inhibitor, partial curve, poor fit]"
CC1(C)O[C@@H]2C[C@H]3[C@@H]4C[C@H](F)C5=CC(=O)CC[C@]5(C)[C@H]4[C@@H](O)C[C@]3(C)[C@]2(C(=O)CO)O1,Potency,[1],"inconclusive: 14.3 µM [cytotoxic, single point]"
same,Potency,[2],"inconclusive: 0.0031 µM [activator, full curve]"
same,"activity, negative = inhibition",[2],inconclusive: 27% [at 32.6 µM]
same,Potency,[3],"inconclusive: 61.7 µM [rising, single point]"
same,Potency,[11],"inconclusive: 456 nM [activator, partial curve] and inconclusive: 4.37 µM [activator, full curve, poor fit]"
same,Potency,[7],inactive
CC(C)COC(=O)CC(C(=O)OCC(C)C)S(=O)(=O)O (stereo not given),Potency,[1],inactive
same,Potency,[2],inactive
same,Potency,[7],inactive
CC12CCC(CC1)C(C)(C)O2,Potency,[1],inactive
same,Potency,[10],inactive
same,Potency,[3],"inconclusive: 342 nM [cytotoxic, full curve, poor fit] and inconclusive: 11 µM [cytotoxic, full curve, poor fit]"
same,Potency,[9],inactive
C=CCN(CC=C)CC=C,"activity change, negative = cytotoxicity",[1],inconclusive: 7.08%
same,Potency,[3],"inconclusive: 61.6 µM [rising, partial curve, poor fit]"
C[C@H]1NCc2cc(-c3ccc4c(=O)c(C(=O)O)cn(C5CC5)c4c3OC(F)F)ccc21,Potency,[1],"inconclusive: 23.7 µM [cytotoxic, partial curve, poor fit]"
same,Potency,[10],inactive
same,Potency,[2],inactive
same,Potency,[3],"inconclusive: 10.7 µM [rising, single point]"
same,Potency,[7],inactive
NC(=O)Nc1nc2ccccc2[nH]1,Potency,[12],inactive
Nc1cccc2c1CN(C1CCC(=O)NC1=O)C2=O (stereo not given),Potency,[12],inactive
Cc1cccn2c(=O)c(-c3nnn[nH]3)cnc12,Potency,[12],"inconclusive: 33.5 µM [rising, partial curve, poor fit]"
CCCCC(CC)CNCC(CC)CCCC (stereo not given),Potency,[12],inactive
OCCN1CCN(CCO)CC1,Potency,[12],inactive
